Some of the results follow.
Key:
Test in all cases: glycan array binding signal (z-score within array); higher = stronger binding
Conditions in all cases: glycan notation: IUPAC condensed, linker removed
[1] = biological target: GlcNAc(b1-3)Gal(b1-3)GalNAc
Outline: (§1)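 The Consortium for Functional Glycomics database supplied 3228 glycan arrays, of which those lacking an available protein sequence were dropped. The binding signal, a within-array Z-score, was averaged across arrays of the same protein sequence and across linkers. Negative scores can be read as non-binding.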

GlcNAc(b1-3)Gal(b1-4)Glc = biological target: GlcNAc(b1-3)Gal(b1-4)Glc
Outline: as §1

[2] = biological target: GlcNAc(b1-3)Gal(b1-4)GlcNAc
Outline: as §1

[3] = biological target: GlcNAc(b1-3)Gal(b1-4)GlcNAc(b1-2)Man(a1-3)[GlcNAc(b1-3)Gal(b1-4)GlcNAc(b1-2)Man(a1-6)]Man(b1-4)GlcNAc(b1-4)GlcNAc
Outline: as §1

[4] = biological target: GlcNAc(b1-3)Gal(b1-4)GlcNAc(b1-2)Man(a1-3)[GlcNAc(b1-3)Gal(b1-4)GlcNAc(b1-2)Man(a1-6)]Man(b1-4)GlcNAc(b1-4)[Fuc(a1-6)]GlcNAc
Outline: as §1

[5] = biological target: GlcNAc(b1-3)Gal(b1-4)GlcNAc(b1-2)[GlcNAc(b1-3)Gal(b1-4)GlcNAc(b1-6)]Man(a1-6)[GlcNAc(b1-3)Gal(b1-4)GlcNAc(b1-2)Man(a1-3)]Man(b1-4)GlcNAc(b1-4)GlcNAc
Outline: as §1

[6] = biological target: GlcNAc(b1-3)Gal(b1-4)GlcNAc(b1-3)Gal(b1-4)GlcNAc
Outline: as §1

[7] = biological target: GlcNAc(b1-3)Gal(b1-4)GlcNAc(b1-3)Gal(b1-4)GlcNAc(b1-2)Man(a1-3)[GlcNAc(b1-3)Gal(b1-4)GlcNAc(b1-3)Gal(b1-4)GlcNAc(b1-2)Man(a1-6)]Man(b1-4)GlcNAc(b1-4)GlcNAc
Outline: as §1

[8] = biological target: GlcNAc(b1-3)Gal(b1-4)GlcNAc(b1-3)Gal(b1-4)GlcNAc(b1-2)Man(a1-3)[GlcNAc(b1-3)Gal(b1-4)GlcNAc(b1-3)Gal(b1-4)GlcNAc(b1-2)Man(a1-6)]Man(b1-4)GlcNAc(b1-4)[Fuc(a1-6)]GlcNAc
Outline: as §1

[9] = biological target: GlcNAc(b1-3)Gal(b1-4)GlcNAc(b1-3)Gal(b1-4)GlcNAc(b1-2)[GlcNAc(b1-3)Gal(b1-4)GlcNAc(b1-3)Gal(b1-4)GlcNAc(b1-6)]Man(a1-6)[GlcNAc(b1-3)Gal(b1-4)GlcNAc(b1-3)Gal(b1-4)GlcNAc(b1-2)Man(a1-3)]Man(b1-4)GlcNAc(b1-4)[Fuc(a1-6)]GlcNAc
Outline: as §1

[10] = biological target: GlcNAc(b1-3)Gal(b1-4)GlcNAc(b1-3)Gal(b1-4)GlcNAc(b1-3)Gal(b1-4)GlcNAc(b1-2)Man(a1-3)[GlcNAc(b1-3)Gal(b1-4)GlcNAc(b1-3)Gal(b1-4)GlcNAc(b1-3)Gal(b1-4)GlcNAc(b1-2)Man(a1-6)]Man(b1-4)GlcNAc(b1-4)GlcNAc
Outline: as §1

[11] = biological target: GlcNAc(b1-3)Gal(b1-4)GlcNAc(b1-3)Gal(b1-4)GlcNAc(b1-3)Gal(b1-4)GlcNAc(b1-2)Man(a1-3)[GlcNAc(b1-3)Gal(b1-4)GlcNAc(b1-3)Gal(b1-4)GlcNAc(b1-3)Gal(b1-4)GlcNAc(b1-2)Man(a1-6)]Man(b1-4)GlcNAc(b1-4)[Fuc(a1-6)]GlcNAc
Outline: as §1

[12] = biological target: GlcNAc(b1-3)Gal(b1-4)GlcNAc(b1-3)Gal(b1-4)GlcNAc(b1-3)Gal(b1-4)GlcNAc(b1-2)[GlcNAc(b1-3)Gal(b1-4)GlcNAc(b1-3)Gal(b1-4)GlcNAc(b1-3)Gal(b1-4)GlcNAc(b1-6)]Man(a1-6)[GlcNAc(b1-3)Gal(b1-4)GlcNAc(b1-3)Gal(b1-4)GlcNAc(b1-3)Gal(b1-4)GlcNAc(b1-2)Man(a1-3)]Man(b1-4)GlcNAc(b1-4)[Fuc(a1-6)]GlcNAc
Outline: as §1

[13] = biological target: GlcNAc(b1-3)Gal(b1-4)GlcNAc(b1-3)Gal(b1-4)GlcNAc(b1-3)Gal(b1-4)GlcNAc(b1-3)Gal(b1-4)GlcNAc(b1-2)Man(a1-3)[GlcNAc(b1-3)Gal(b1-4)GlcNAc(b1-3)Gal(b1-4)GlcNAc(b1-3)Gal(b1-4)GlcNAc(b1-3)Gal(b1-4)GlcNAc(b1-2)Man(a1-6)]Man(b1-4)GlcNAc(b1-4)GlcNAc
Outline: as §1

[14] = biological target: GlcNAc(b1-3)Gal(b1-4)GlcNAc(b1-3)Gal(b1-4)GlcNAc(b1-3)Gal(b1-4)GlcNAc(b1-3)Gal(b1-4)GlcNAc(b1-2)Man(a1-3)[GlcNAc(b1-3)Gal(b1-4)GlcNAc(b1-3)Gal(b1-4)GlcNAc(b1-3)Gal(b1-4)GlcNAc(b1-3)Gal(b1-4)GlcNAc(b1-2)Man(a1-6)]Man(b1-4)GlcNAc(b1-4)[Fuc(a1-6)]GlcNAc
Outline: as §1

[15] = biological target: GlcNAc(b1-3)Gal(b1-4)GlcNAc(b1-3)Gal(b1-4)GlcNAc(b1-3)Gal(b1-4)GlcNAc(b1-3)Gal(b1-4)GlcNAc(b1-2)[GlcNAc(b1-3)Gal(b1-4)GlcNAc(b1-3)Gal(b1-4)GlcNAc(b1-3)Gal(b1-4)GlcNAc(b1-3)Gal(b1-4)GlcNAc(b1-6)]Man(a1-6)[GlcNAc(b1-3)Gal(b1-4)GlcNAc(b1-3)Gal(b1-4)GlcNAc(b1-3)Gal(b1-4)GlcNAc(b1-3)Gal(b1-4)GlcNAc(b1-2)Man(a1-3)]Man(b1-4)GlcNAc(b1-4)[Fuc(a1-6)]GlcNAc
Outline: as §1

[16] = biological target: GlcNAc(b1-3)Gal(b1-4)GlcNAc(b1-3)Gal(b1-4)GlcNAc(b1-3)GalNAc
Outline: as §1

[17] = biological target: GlcNAc(b1-3)Gal(b1-4)GlcNAc(b1-3)GalNAc
Outline: as §1

[18] = biological target: GlcNAc(b1-3)Gal(b1-4)GlcNAc(b1-3)[GlcNAc(b1-3)Gal(b1-4)GlcNAc(b1-3)]GalNAc
Outline: as §1

[19] = biological target: GlcNAc(b1-3)Gal(b1-4)GlcNAc(b1-6)[Gal(b1-3)]GalNAc
Outline: as §1

[20] = biological target: GlcNAc(b1-3)Gal(b1-4)GlcNAc(b1-6)[GlcNAc(b1-3)Gal(b1-3)]GalNAc
Outline: as §1

[21] = biological target: GlcNAc(b1-3)Gal(b1-4)GlcNAc(b1-6)[GlcNAc(b1-3)]Gal(b1-4)GlcNAc
Outline: as §1

GlcNAc(b1-3)GalNAc = biological target: GlcNAc(b1-3)GalNAc
Outline: as §1

GlcNAc(b1-3)Man = biological target: GlcNAc(b1-3)Man
Outline: as §1

[22] = biological target: GlcNAc(b1-3)[GlcNAc(b1-4)][GlcNAc(b1-6)]GlcNAc
Outline: as §1

[23] = biological target: GlcNAc(b1-3)[GlcNAc(b1-6)]Gal(b1-4)GlcNAc
Outline: as §1

[24] = biological target: GlcNAc(b1-3)[GlcNAc(b1-6)]GalNAc
Outline: as §1

[25] = biological target: GlcNAc(b1-4)Gal(b1-4)GlcNAc
Outline: as §1

GlcNAc(b1-4)GlcNAc = biological target: GlcNAc(b1-4)GlcNAc
Outline: as §1

[26] = biological target: GlcNAc(b1-4)GlcNAc(b1-4)GlcNAc
Outline: as §1

[27] = biological target: GlcNAc(b1-4)GlcNAc(b1-4)GlcNAc(b1-4)GlcNAc(b1-4)GlcNAc
Outline: as §1

[28] = biological target: GlcNAc(b1-4)GlcNAc(b1-4)GlcNAc(b1-4)GlcNAc(b1-4)GlcNAc(b1-4)GlcNAc
Outline: as §1

[29] = biological target: GlcNAc(b1-4)[GlcNAc(b1-6)]GalNAc
Outline: as §1

[30] = biological target: GlcNAc(b1-6)Gal(b1-4)GlcNAc
Outline: as §1

GlcNAc(b1-6)GalNAc = biological target: GlcNAc(b1-6)GalNAc
Outline: as §1

[31] = biological target: GlcNAc6S(b1-3)Gal(b1-4)GlcNAc
Outline: as §1

Kdn(a2-3)Gal(b1-3)GalNAc = biological target: Kdn(a2-3)Gal(b1-3)GalNAc
Outline: as §1

B1: DC-ASGPR S+GEE (Homo sapiens) (protein)
chain: MTRTYENFQYLENKVKVQGFKNGPLPLQSLLQRLRSGPCHLLLSLGLGLLLLVIICVVGFQNSKFQRDLVTLRTDFSNFTSNTVAEIQALTSQGSSLEETIASLKAEVEGFKQERQAVHSEMLLRVQQLVQDLKKLTCQVATINNNGEEASTEGTCCPVNWVEHQDSCYWFSHSGMSWAEAEKYCQLKNAHLVVINSREEQNFVQKYLGSAYTWMGLSDPEGAWKWVDGTDYATGFQNWKPGQPDDWQGHGLGGGEDCAHFHPDGRWNDDVCQRPYHWVCEAGLGQTSQESH
[1]
  glycan array binding signal (z-score): -0.318
GlcNAc(b1-3)Gal(b1-4)Glc
  glycan array binding signal (z-score): -0.302
[2]
  glycan array binding signal (z-score): -0.326
[3]
  glycan array binding signal (z-score): -0.336
[4]
  glycan array binding signal (z-score): -0.254
[5]
  glycan array binding signal (z-score): -0.08
[6]
  glycan array binding signal (z-score): -0.288
[7]
  glycan array binding signal (z-score): -0.304
[8]
  glycan array binding signal (z-score): -0.248
[9]
  glycan array binding signal (z-score): -0.113
[10]
  glycan array binding signal (z-score): -0.276
[11]
  glycan array binding signal (z-score): -0.192
[12]
  glycan array binding signal (z-score): -0.176
[13]
  glycan array binding signal (z-score): -0.159
[14]
  glycan array binding signal (z-score): 0.044
[15]
  glycan array binding signal (z-score): -0.234
[16]
  glycan array binding signal (z-score): -0.297
[17]
  glycan array binding signal (z-score): -0.533
[18]
  glycan array binding signal (z-score): -0.484
[19]
  glycan array binding signal (z-score): 0.056
[20]
  glycan array binding signal (z-score): -0.32
[21]
  glycan array binding signal (z-score): -0.301
GlcNAc(b1-3)GalNAc
  glycan array binding signal (z-score): -0.312
GlcNAc(b1-3)Man
  glycan array binding signal (z-score): -0.36
[22]
  glycan array binding signal (z-score): -0.332
[23]
  glycan array binding signal (z-score): -0.307
[24]
  glycan array binding signal (z-score): -0.291
[25]
  glycan array binding signal (z-score): -0.338
GlcNAc(b1-4)GlcNAc
  glycan array binding signal (z-score): -0.284
[26]
  glycan array binding signal (z-score): -0.357
[27]
  glycan array binding signal (z-score): -0.341
[28]
  glycan array binding signal (z-score): -0.22
[29]
  glycan array binding signal (z-score): -0.287
[30]
  glycan array binding signal (z-score): -0.326
GlcNAc(b1-6)GalNAc
  glycan array binding signal (z-score): 3.74
[31]
  glycan array binding signal (z-score): -0.351
Kdn(a2-3)Gal(b1-3)GalNAc
  glycan array binding signal (z-score): -0.289

Reference: the supplement of paper PMC8728848
